Data on 2 substances can be found in patent publication US8927205.

This assay addresses normal human wild-type TNF receptors on Kym1 cells. Kind of assay: cell-based or functional assay.

“scTNF3x (single-chain TNF with two (GGGS)3 peptide linkers) (a stretch of the chain, sequence not shown) (ligand)” showed an ED50, cytotoxicity on Kym1 cells, solutions stored 16 days at 37° C. (FIG. 8) of 0.06 ng/mL; an ED50 after 22 days (FIG. 9), cytotoxicity on Kym1 cells, samples stored at 37° C. of 0.07 ng/mL; an ED50 freshly titrated (FIG. 7), cytotoxicity on Kym1 cells of 0.06 ng/mL.
The substance “scTNF4x (single-chain TNF with two (GGGS)4 peptide linkers) (a stretch of the chain, sequence not shown) (ligand)” registered an ED50, cytotoxicity on Kym1 cells, solutions stored 16 days at 37° C. (FIG. 8) of 0.06 ng/mL; an ED50 after 8 days (FIG. 12), stored at 37° C. in 100% human serum, cytotoxicity on Kym1 cells of 0.03 ng/mL; an ED50 after 22 days (FIG. 9), cytotoxicity on Kym1 cells, samples stored at 37° C. of 0.07 ng/mL; an ED50 freshly titrated (FIG. 7), cytotoxicity on Kym1 cells of 0.06 ng/mL. This substance showed an ED50 freshly titrated (FIG. 11), diluted in 100% human serum, cytotoxicity on Kym1 cells of 0.007 ng/mL.
